Laboratory results taken from patent publication US12364706B2, “Modified aminoglycoside compounds and uses thereof in disabling bacterial ribosome” (Technion Research & Development Foundation Limited, priority 2018, dated 2025).

System: A-site oligonucleotide model rRNA
Details: 24 hours, pH 8, 37° C.; only nonspecific cleavage

| Structure (SMILES) | concentration at which RNA cleavage was observed |
| --- | --- |
| NCCN [ethylenediamine] | 100 mm and 200 mm |
| NCCNCC(=O)N[C@H]1[C@H](O)[C@@H](N)[C@@H](O[C@H]2[C@H](O[C@@H]3O[C@H](CO)[C@@H](O[C@H]4O[C@@H](CN)[C@@H](O)[C@H](O)[C@H]4N)[C@H]3O)[C@@H](O)[C@H](N)C[C@@H]2N)O[C@@H]1CN [Compound 6, 4′-(2-(aminoethylamino)acetamido)-4′-deoxy-neomycin] | 10 mm |

Values joined by “and” are separate entries in the source; they are usually repeats but may differ in a detail not shown here. Identical values can stand only once.
